Measured values reported in publication PMC4336329 (PLoS ONE, 2015).
Screen size: about 310,000 compounds; about 14,000 (4.5%) showed an effect of 50% or more. The effect is printed as a negative number. This is one part of the list.

molecular target: human ether-à-go-go-related gene (hERG) potassium channel (human, UniProt Q12809); experiment: primary screen, population patch clamp on CHO cells stably expressing hERG
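Note: peak tail current of the secondary pulse compared with the same well before compound.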

Chain of human ether-à-go-go-related gene (hERG) potassium channel (Q12809 whole entry, looked up): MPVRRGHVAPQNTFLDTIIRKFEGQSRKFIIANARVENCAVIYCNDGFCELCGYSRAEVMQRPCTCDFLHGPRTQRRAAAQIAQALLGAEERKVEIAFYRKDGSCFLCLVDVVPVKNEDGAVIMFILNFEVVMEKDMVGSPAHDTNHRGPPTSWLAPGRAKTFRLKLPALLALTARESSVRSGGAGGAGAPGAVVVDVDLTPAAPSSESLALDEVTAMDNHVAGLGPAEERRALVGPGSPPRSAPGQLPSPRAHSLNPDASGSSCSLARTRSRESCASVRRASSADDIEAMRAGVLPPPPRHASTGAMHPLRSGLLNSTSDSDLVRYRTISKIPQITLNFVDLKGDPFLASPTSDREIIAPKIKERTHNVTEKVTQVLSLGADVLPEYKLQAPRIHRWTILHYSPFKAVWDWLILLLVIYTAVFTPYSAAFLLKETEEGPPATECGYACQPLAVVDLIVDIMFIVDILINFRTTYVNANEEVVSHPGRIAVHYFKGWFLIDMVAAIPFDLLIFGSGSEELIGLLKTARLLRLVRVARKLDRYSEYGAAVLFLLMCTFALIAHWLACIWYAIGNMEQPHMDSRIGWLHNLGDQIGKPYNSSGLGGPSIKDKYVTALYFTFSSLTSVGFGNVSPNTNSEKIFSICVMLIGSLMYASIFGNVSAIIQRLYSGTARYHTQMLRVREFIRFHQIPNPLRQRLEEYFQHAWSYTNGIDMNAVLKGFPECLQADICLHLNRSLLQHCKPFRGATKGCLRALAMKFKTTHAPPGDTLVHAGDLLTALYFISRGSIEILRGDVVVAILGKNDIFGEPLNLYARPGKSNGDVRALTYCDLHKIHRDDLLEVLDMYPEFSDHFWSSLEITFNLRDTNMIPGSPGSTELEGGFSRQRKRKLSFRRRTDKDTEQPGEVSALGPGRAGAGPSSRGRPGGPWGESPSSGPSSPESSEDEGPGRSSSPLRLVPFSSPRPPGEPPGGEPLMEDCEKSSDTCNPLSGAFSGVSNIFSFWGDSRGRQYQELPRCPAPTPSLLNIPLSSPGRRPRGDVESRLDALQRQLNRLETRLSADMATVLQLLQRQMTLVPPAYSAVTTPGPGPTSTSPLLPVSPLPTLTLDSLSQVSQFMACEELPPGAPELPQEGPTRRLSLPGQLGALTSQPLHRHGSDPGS

Compound | hERG current change (%, negative = inhibition) at 10uM
O=C(N/N=C/c1ccsc1)c1ccc2ccccc2n1 | -2.2%
C=CCn1c(O)c(C(=O)CCCCCC)c(=O)[nH]c1=O | 16.6%
C[C@@H](CSc1ccccc1)CN1CC[C@H](NC(=O)OCc2ccccc2)CCC1=O | -44.2%
N/C(=N\OC(=O)c1ccccc1Br)c1ccc([N+](=O)[O-])cc1 | -14.4%
O=C(CC1NCCNC1=O)Nc1cccc([N+](=O)[O-])c1 (centres unmarked) | 7.17%
Cc1ccc(OCCNC(=O)c2ccccc2SCC(=O)N2CCCC2)cc1 | 5.98%
O=C(CCS(=O)(=O)c1ccccc1)Nc1nnc(-c2ccco2)o1 | 14.8%
Cc1c(C(=O)N2CCCCC2)sc(N)c1C#N | 16.3%
CC(C)CCNC(=O)C1CCCN(S(=O)(=O)c2ccc(F)cc2)C1 (centres unmarked) | 6.85%
CC(C)(C)NC(=O)C(c1ccco1)N(C(=O)Cn1nnc(-c2ccc(F)cc2)n1)c1cccc(F)c1 (centres unmarked) | 9.99%
Cc1cccc(C)c1NC(=O)c1cccn(Cc2ccc3c(c2)OC(F)(F)O3)c1=O | -4.53%
CN1CCN(CCCCC(=O)c2ccccc2)CC1.Cl | -0.477%
OC1CCN(Cc2ccc3ccccc3c2)CC1 | 13.4%
O=C(NCc1ccco1)c1ccc(S(=O)(=O)N2CCOCC2)cc1 | 11.5%
COc1ccccc1NC(=O)/C(=C/c1cccc([N+](=O)[O-])c1)c1ccccc1 | -26.6%
CSc1ncc(CN2CCN(CCC(C)C)C(CCO)C2)cn1 (centres unmarked) | -1.45%
COc1ccccc1CN1CCC(CNS(=O)(=O)c2cc(-c3onc(C)c3C)ccc2OC)CC1 | -76.7%
NC(=O)C1(N2CCCCC2)CCN(CC(=O)Nc2ccccc2Sc2ccccc2)CC1 | -2.74%
CCCCn1c(N)c(-c2nc3ccccc3o2)c2c([N+](=O)[O-])nn(CC)c(=O)c21 | 2.15%

Compound | hERG current change (%, negative = inhibition) at 10uM
Fc1ccc(CNC(=S)Nc2ccccc2Cl)cc1 | 4.82%
Fc1ccc(C2c3[nH]c4ccccc4c3CCN2Cc2ccoc2)cc1 (centres unmarked) | -26.8%
COc1ccc(CN2C(=O)C(CC(C)C)Nc3ncnc(N4CCN(c5ccccc5)CC4)c32)cc1.O=C(O)C(F)(F)F (centres unmarked) | -10.4%
COc1ccc(OC)c(C(=O)Nc2ccc3[nH]ccc3c2)c1 | 2.15%
Cc1cccc(Nc2nc(NCCCN3CCOCC3)nc(N)c2[N+](=O)[O-])c1 | -17.9%
CC(=O)N1CCN(C2=Nc3cccc4cccc2c34)CC1 | -46%
O=C(CCC1CCCN(C(=O)Cc2ccc(F)cc2)C1)N1CCN(c2ccccn2)CC1 (centres unmarked) | -16.6%
CCOC(=O)c1c(NC(=O)Cc2cccs2)sc2c1CCCC2 | 5.61%
c1ccc2[nH]c(CSc3nc4ccccc4o3)nc2c1 | -7.86%
COc1ccc(-c2cc(C(=O)N/N=C(\C)c3cccnc3)c3ccccc3n2)c(OC)c1 | 1.6%
CC(C)Oc1ccc(CNC(=S)N/N=C/c2ccc([N+](=O)[O-])cc2)cc1 | 5.16%
O=C(NN1CCOCC1)c1ccc([N+](=O)[O-])cc1 | 4.35%
CCCCn1c(N)c(N(CCOC)C(=O)c2cc3ccccc3cc2OC)c(=O)[nH]c1=O | 27.1%
CCn1c2ccccc2c2cc(NC(=O)c3ccc(C)c([N+](=O)[O-])c3)ccc21 | 2.4%
CCOc1ccc(S(=O)(=O)n2c(C)nc3ccccc32)cc1 | -13.4%
CN(C)S(=O)(=O)c1cc(NC(=O)CNCCN2CCOCC2)ccc1Cl.O=C(O)C(=O)O | -6.15%
O=C(NCc1ccncc1)c1cc(-c2ccc(Cl)cc2)oc1C(F)(F)F | 5.31%
CCN(CC(=O)Nc1cc(Cl)ccc1C)C(=O)CCS(=O)(=O)c1ccc(Cl)cc1 | -27.6%
CCOCC(=O)Nc1nnc(SCCOC)s1 | -0.419%

Compound | hERG current change (%, negative = inhibition) at 10uM
O=C(NC1CC1)C1CCN(C2CCN(C(=O)CC3=CCCCC3)CC2)CC1 | 4.68%
Oc1c(Br)cc(Br)cc1/C=N/c1nccs1 | -19.6%
CC(C)(C)c1cc(NC(=O)c2cccc([N+](=O)[O-])c2)no1 | 3.8%
O=C(COc1ccccc1F)NNC(=O)c1ccc(N2CCCCC2)c([N+](=O)[O-])c1 | -36%
COc1ccccc1CCNC(=O)Cn1ccc2cc(S(=O)(=O)N3CCCC3)ccc21 | 24.4%
Cc1cc(S(=O)(=O)Nc2noc3ccccc23)ccc1F | 20.9%
COc1cc(C(Nc2ccc3c(c2)OCO3)C(=O)NC2CCCCC2)cc(OC)c1OC (centres unmarked) | -61.7%
CCc1cccc(C)c1NC(=O)CCCC(=O)O | 12%
O=C(Nc1ccc(Cl)cc1)Nc1nnc(CSc2ccc(Cl)cc2)s1 | -3.83%
CC(C)CCN(C(=O)c1csnn1)C(C(=O)NC1CCCC1)c1ccccc1 (centres unmarked) | -27.8%
Cc1ccc(S(=O)(=O)Nc2ccccc2-c2nc3ccccc3[nH]c2=O)cc1 | -5.94%
COc1cc(NC(=S)N2CCN(C/C=C/c3ccccc3)CC2)cc(OC)c1 | -10.7%
O=C(NCc1ccccc1)c1csc(-c2cccnc2)n1 | -9.49%
CC1=C(C#N)C(c2ccoc2)C(C(=O)OCc2ccccc2)=C(N)S1 (centres unmarked) | -1.32%
O=C(Nc1ccc(Cc2ccncc2)cc1)c1cc(F)c(F)cc1Cl | -71.2%
O=C1C=C(Nc2ccc(Cl)cc2)C(=O)N1c1ccc(Cl)cc1 | 9.57%
CC(C)Cc1oc(C(=O)O)cc1CN.Cl | -4.32%
Nc1nc(CN2CCCCC2)cs1 | 0.0465%
